In PubChem BioAssay AID686979 (National Center for Advancing Translational Sciences (NCATS), 2013):
Hit rate of the full screen: of about 420,000 compounds, about 50,000 (12%) were called active. This list was built around the results that the source calls inconclusive (neither active nor inactive); the mix of calls is not that of the screen. Calls follow the shape of the dose curve; as a rule, active = well fitted inhibition curve with a large enough effect; inconclusive = small, poorly fitted or top-dose-only effect; inactive = flat fitted curve, though single readings scatter. Potencies of inconclusive entries are left out as doubtful fits.

Experiment: qHTS for Inhibitors of human tyrosyl-DNA phosphodiesterase 1 (TDP1): qHTS in cells in presence of CPT; also: nearly all actives have a fitted effect of over 55% in size
Conditions: chicken DT40 Tdp1-/-;hTDP1 cells + 20 nM CPT, ATP luminescence, 48 h; activity change, negative = growth inhibition: at 46.2 µM (top of the series)
Outline: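 Cell growth measured by CellTiter-Glo luminescence after a minimum 48 h, 37 C compound exposure with 20 nM CPT in Tdp1-knockout DT40 cells stably expressing hTDP1, seeded 400/well; qHTS titration format.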
% is scaled to controls: 0 for no effect and ±100 for the full control effect; potency is read from the fitted curve at half-maximal effect; tags tell the direction and shape of the fitted curve.

| Compound | Potency | activity change, negative = growth inhibition |
| --- | --- | --- |
| CCC1CCCCN1C(=O)CSc1nc2c(c(=O)n1C)SC(C)C2 (configuration not stated) | inconclusive [inhibitor, single point] |  |
| O=C(Cn1c(SCC(=O)Nc2ccc(F)cc2)nc2ccccc21)NCc1ccc(F)cc1 | inconclusive [inhibitor, single point] |  |
| Cc1cc(Nc2ccccc2)nc(NCc2ccccc2)n1 | active: 8.2 µM |  |
| O=C1CSC(c2cccc([N+](=O)[O-])c2)N1C1CC2CCC1C2 (configuration not stated) | inconclusive [inhibitor, single point] |  |
| O=C(c1cc(-c2ccccc2)nn1-c1ccccc1)N1CCN(S(=O)(=O)c2c(F)cccc2F)CC1 | active: 13 µM |  |
| Clc1cccc(-c2nc3ccc(Cl)cn3c2Cc2ccsc2)c1 | inconclusive [inhibitor, partial curve] |  |
| S=C(NC12CC3CC(CC(C3)C1)C2)N1CCOCC1 | inconclusive [inhibitor, single point] |  |
| O=C(OCC(=O)N1CCOCC1)C(c1ccccc1)c1ccccc1 |  | inactive: 9.77% |
| Cc1ccc(Cl)cc1NC(=O)c1cnc(N2CCCCC2)c2ccccc12 | active: 18.4 µM |  |
| COc1ccc2c(c1)[C@]1(C)CCC(=O)C[C@H]1CC2 |  | inactive: -12.1% |
| O=c1c([N+](=O)[O-])c(N2CCCC2)c2ccccc2n1-c1ccccc1 |  | inactive: -5.12% |
| O=C(OC1CCCC1)c1ccc(Cl)cc1Cl |  | inactive: -14.4% |
| O=C(NCc1ccccn1)c1ccccc1OCc1ccccc1Cl | inconclusive [inhibitor, single point] |  |
| CCCCc1c(Cc2cccc(F)c2)ncn1CCc1ccccc1OC | inconclusive [inhibitor, single point] |  |
| CCCn1c(NC(=O)CCS(=O)(=O)c2ccc(C)cc2)nc2ccccc21 | inconclusive [inhibitor, single point] |  |
| O=C(COc1ccc([N+](=O)[O-])cc1Cl)N1CCOCC1 |  | inactive: -10.9% |
| O=C(c1cccc(S(=O)(=O)N2CCc3ccccc32)c1)N1CCN(c2ccccc2)CC1 | inconclusive [inhibitor, single point] |  |
| CCOc1ccccc1NC(=O)C1CCC(=O)N1S(=O)(=O)c1ccc(C)cc1 (configuration not stated) |  | inactive: 20.3% |
| COc1ccc(/C=C2\N=C(c3ccccc3Cl)NC2=O)cc1 | active: 5.8 µM |  |
| COc1cccc(CNC(=O)[C@H](C)NC(=O)C2CCN(S(=O)(=O)c3ccccc3)CC2)c1 | inconclusive [inhibitor, single point] |  |
| O=C(NC1CCCc2c1cnn2-c1cc(F)cc(F)c1)c1ccccn1 (configuration not stated) | inconclusive [inhibitor, single point] |  |
| Cc1cc(C(=O)N/N=C/c2ccc(OC(=O)c3ccccc3Br)cc2)n[nH]1 | inconclusive [inhibitor, partial curve] |  |
| CCOc1ccccc1C(=O)NCCNC(=O)c1ccccc1OCC |  | inactive: -16.9% |
| Cc1ccc(C(=O)Nc2ccncc2)c(C)c1 | inconclusive [inhibitor, partial curve, poor fit] |  |

| Compound | Potency | activity change, negative = growth inhibition |
| --- | --- | --- |
| Nc1nc(Nc2ccccc2F)nc(N2CCOCC2)c1[N+](=O)[O-] |  | inactive: 7.37% |
| CN1CCN(NC(=O)c2cc(-c3ccccn3)nc3ccccc23)CC1 |  | inactive: 14.3% |
| CCCCSc1cnn(-c2ccccc2)c(=O)c1SCCCC | inconclusive [inhibitor, single point] |  |
| COc1ccccc1CC(=O)NNC(=O)CN(C)S(=O)(=O)c1ccc(Cl)cc1 |  | inactive: -9.36% |
| CCOC(=O)CN(C(=O)CSc1nnc(-c2ccc(OC)c(OC)c2)o1)c1ccccc1 | inconclusive [inhibitor, partial curve] |  |
| COc1ccc(-c2nc3scc(CCNS(=O)(=O)c4ccc(C)cc4)n3n2)cc1 | inconclusive [inhibitor, single point] |  |
| CCOC(=O)c1c(C)[nH]c(C(=O)COC(=O)[C@H](C)N2C(=O)C3CCCCC3C2=O)c1C (some centres not stated) | inconclusive [inhibitor, partial curve] |  |
| Cc1cccc(N2CCN(C(=O)c3ccc4ccccc4c3)CC2C)c1 (configuration not stated) | inconclusive [inhibitor, single point] |  |
| O=C(Nc1cc(C(=O)N2CCN(c3ccccc3O)CC2)ccc1Cl)c1cccs1 | inconclusive [inhibitor, single point] |  |
| C[C@@H]1CN([C@H](C)CO)C(=O)CCCn2cc(nn2)CO[C@H]1CN(C)S(=O)(=O)c1ccc(F)cc1 |  | inconclusive: -30.3% [inhibitor] |
| Cc1ccc(S(=O)(=O)CCSc2nc(C)cc(C(F)(F)F)c2C#N)cc1 | inconclusive [inhibitor, single point] |  |
| CCN1CCN(c2ncc3c(n2)CCN(Cc2cc(F)cc(F)c2)C3)CC1 | active: 14.6 µM |  |
| COc1ccccc1NC(=O)C(=O)NCC(c1ccc2c(c1)OCO2)N1CCN(C)CC1 (configuration not stated) | inconclusive [inhibitor, single point] |  |
| CCOC(CNC(=O)c1cccn2c(=O)c3c(C)c(C)sc3nc12)OCC | active: 16.4 µM |  |
| CCOc1cc2sc(N3CCC(C(=O)Nc4ccc(C)cc4C)CC3)nc2cc1Br | active: 7.31 µM |  |
| O=C(C(=O)N1CCC(c2ccccc2)CC1)c1cccc([N+](=O)[O-])c1 |  | inactive: -7.5% |
| O=C(N[C@@H](Cc1ccccc1)C(=O)CCl)OCc1ccccc1 | active: 2.31 µM |  |
| O=C(CN1CCc2cc3c(cc2C1)OCCCO3)Nc1ccccc1 | inconclusive [inhibitor, partial curve] |  |
| Cc1cccc(N2CCN(Cc3ccoc3)CC2)c1C | inconclusive [inhibitor, single point] |  |
| CCC(C)[C@H](NC(=O)N1CCN(C)CC1)C(=O)OC (some centres not stated) |  | inactive: 5.92% |
| COc1ccccc1CNC(=O)CN1C(=O)NC2(CCCC2)C1=O |  | inactive: 24.4% |
| CCOC(=O)[C@@H]1[C@H]2COc3ccc(Br)cc3[C@@H]2N2C(=O)N(c3ccc(C(F)(F)F)cc3)C(=O)[C@@]12C | active: 20.6 µM |  |
| CCC(=O)c1ccc(OCC(=O)Nc2ccccc2N2CCCCC2)cc1 | active: 2.59 µM |  |
| Cc1ccc(C2C(=O)N(C3CCCC3)CC(=O)N2C2CCCCC2)cc1 (configuration not stated) |  | inactive: -24.8% |

| Compound | Potency | activity change, negative = growth inhibition |
| --- | --- | --- |
| FC(F)(F)c1cc(Cc2nc3ccccc3n2C(CCc2ccccc2)c2nc3ccccc3[nH]2)cc(C(F)(F)F)c1 (configuration not stated) | active: 7.31 µM |  |
| Cc1cccc(C(=O)Nc2c(-c3ccccc3)nc3cc(C)ccn23)c1 | inconclusive [inhibitor, single point] |  |
| Cc1ccc(-c2cc(-c3ccc(F)cc3)nc(N)c2C#N)o1 | inconclusive [inhibitor, single point] |  |
| COc1ccc(S(=O)(=O)N(CC(=O)Nc2ccccc2Br)Cc2ccccc2)cc1 | inconclusive [inhibitor, single point] |  |
| Nc1nonc1-n1nnc(C(=O)N/N=C/c2ccccn2)c1-c1ccccc1 |  | inactive: -9.65% |
| Oc1ccc(-c2onc3ccc(Cl)cc23)cc1 | inconclusive [inhibitor, partial curve] |  |
| COCCCNC(=O)/C(C#N)=C/c1c(N2CCN(c3ccccc3)CC2)nc2ccccn2c1=O | inconclusive [inhibitor, single point] |  |
| O=C(c1cc2cc(Cl)ccc2[nH]1)N1CCN(C(=O)c2ccco2)CC1 | inconclusive [inhibitor, single point] |  |
| CCOC(=O)Cc1csc(NC(=O)C(NC(=O)C2CCCCC2)C(C)C)n1 (configuration not stated) |  | inactive: -28.6% |
| COCc1cc(CN2CCCC(C(=O)Nc3ccc(-c4ccco4)cc3)C2)ccc1OC (configuration not stated) | inconclusive [inhibitor, single point] |  |
| CC(C)c1ccc(/C=C/C(=O)Nc2ccc(CN3CCOCC3)cc2)cc1 | active: 8.2 µM |  |
| CC(C(=O)Nc1ccc(C#N)cc1)N(C)Cc1cccs1 (configuration not stated) | inconclusive [inhibitor, partial curve] |  |
| CC(C)c1ccc(S(=O)(=O)N2CCN(C(=O)Cc3ccsc3)CC2)cc1 | inconclusive [inhibitor, single point] |  |
| COCCOC(=O)C1=C(C)N(c2ccccc2)C(=O)NC1c1cccc([N+](=O)[O-])c1 (configuration not stated) | inconclusive [inhibitor, single point] |  |
| CCCCNC(=O)C[C@@H]1C[C@@]2(C(=O)OC)CCCCC=C2N(Cc2ccc3c(c2)OCO3)C1=O | inconclusive [inhibitor, single point] |  |
| COc1cc([N+](=O)[O-])cc(/C=N/NC(=O)c2cc(C)nc3ccccc23)c1O | inconclusive [inhibitor, single point] |  |
| O=C(Cn1nnc(-c2cccc(C(F)(F)F)c2)n1)N1CCCCCC1 | inconclusive [inhibitor, single point] |  |
| Cc1onc(-c2ccccc2Cl)c1C(=O)Nc1ccc(-n2nncc2-c2ccco2)cc1 | inconclusive [inhibitor, single point] |  |
| O=S(=O)(c1ccc(Cl)cc1)N1CCN(Cc2ccc(O)c3ncccc23)CC1 | active: 6.51 µM |  |
| O=C(O)Cn1cc(/C=N/Nc2ccc([N+](=O)[O-])cn2)c2ccccc21 |  | inactive: 18.9% |
| CCOC(=O)Cc1cn2c(=O)cc(CSCC(=O)Nc3ccc(C)c(C)c3)nc2s1 | active: 18.4 µM |  |
| COc1ccc(NC(=O)CSc2ccccn2)cc1OC |  | inactive: -6.4% |
| Fc1cccc(Cc2c(-c3ccco3)nc3c(Cl)cc(C(F)(F)F)cn23)c1 | inconclusive [inhibitor, single point] |  |
| O=[N+]([O-])c1ccc(N2CCCCC2)nc1N1CCCCC1 | inconclusive [inhibitor, single point] |  |
